From PubChem BioAssay AID686979 (National Center for Advancing Translational Sciences (NCATS), 2013)
Out of some 420,000 compounds screened, about 50,000 (12%) were called active. Inconclusive means that the source gave no clear call. Such entries were picked first, then a sample of the others. Calls come from the whole dose curve; as a rule, active = well fitted inhibition curve with a large enough effect; inconclusive = small, poorly fitted or top-dose-only effect; inactive = flat fitted curve, though single readings scatter. No potency is given beside an inconclusive call; the fits are too rough.

assay: qHTS for Inhibitors of human tyrosyl-DNA phosphodiesterase 1 (TDP1): qHTS in cells in presence of CPT; settings: chicken DT40 Tdp1-/-;hTDP1 cells + 20 nM CPT, ATP luminescence, 48 h; activity change, negative = growth inhibition: at 46.2 µM (top of the series) unless noted; note: nearly all actives have a fitted effect of over 55% in size
Outline: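 Chicken DT40 Tdp1-/- cells complemented with human TDP1, 400 cells/well, exposed to compounds plus 20 nM camptothecin for at least 48 h at 37 C; viability read as ATP content by CellTiter-Glo luminescence.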
% is set by controls: 0 for no effect and ±100 for the full control effect; potency is the fitted concentration of half-maximal effect; tags give direction and shape of the fitted curve.

| Structure (SMILES) | Potency | activity change, negative = growth inhibition |
| --- | --- | --- |
| COc1cc(NC(=O)c2cc3c(Cl)nc4ccccc4c3s2)cc(OC)c1OC | active: 10.3 µM | – |
| O=C(NCC1CC1)c1cccc2c(-c3ccc(F)c(F)c3)coc12 | inconclusive [inhibitor, single point] | – |
| CCN(CC)C(=O)Cn1c(C)c(/C=C/c2cc[n+](C)cc2)c2ccccc21 | inconclusive [inhibitor, single point] | – |
| CCCC(=O)c1cc(-c2nc3ccccc3n2C)n(C)c1 | inconclusive [inhibitor, single point] | – |
| CCC(SC1=NCCS1)C(=O)Nc1ccc(S(N)(=O)=O)cc1 (stereo unspecified) | – | inactive: -5.29% |
| CC(C)n1cc(CN2CCC(C(=O)Nc3ccc(Oc4ccccc4F)cc3)CC2)cn1 | inconclusive [inhibitor, single point] | – |
| O=C1c2ccccc2C(=O)N1CCc1c(-c2[nH]c3ccccc3c2CCN2C(=O)c3ccccc3C2=O)[nH]c2ccccc12 | active: 20.6 µM | – |
| c1ccc(-c2ccc(-c3csnn3)cc2)cc1 | – | inactive: -0.145% |
| c1nc(N2CCOCC2)c2c3c(sc2n1)CCCC3 | inconclusive [inhibitor, single point] | – |
| COc1ccc(-c2nnc(SCC(=O)Nc3ccc(C(C)C)cc3)nc2-c2ccc(OC)c(OC)c2)cc1OC | inconclusive [inhibitor, single point] | – |
| Cc1ccc([C@H]2C[C@@H](O)[C@H](n3cc(-c4ccc(F)cc4)nn3)CN2Cc2cccs2)cc1 | inconclusive [inhibitor, single point] | – |
| CCN(CC)CCC(=O)c1ccc(F)cc1 | active: 2.91 µM | – |
| CC(=O)NC(=S)NNC(=O)CCc1ccccc1 | inconclusive [inhibitor, single point] | – |
| CCC(C)(Oc1ccc(C2(c3ccc(OC(C)(CC)C(=O)O)cc3)CCCCC2)cc1)C(=O)O (stereo unspecified) | – | inactive: 10.4% |
| C1=C(C(c2nnnn2C2CCCCC2)N2CCCCC2)COc2ccccc21 (stereo unspecified) | inconclusive [inhibitor, single point] | – |
| CCc1ccc(/C=C2\SC(N3CCCC3)=NC2=O)cc1 | – | inactive: 0.504% |
| Cc1ccc(NC(=S)Nc2ccc3[nH]c(=O)[nH]c3c2)cc1 | inconclusive [inhibitor, single point] | – |
| Cc1ccc(-n2nc3ccc(NC(=O)c4ccc5c(c4)OCO5)cc3n2)cc1 | – | inconclusive: -30.9% [inhibitor] |
| CCCN(C(=O)COC(=O)c1nc2nc(C)cc(C)n2n1)C1CCS(=O)(=O)C1 (stereo unspecified) | – | inactive: 14.3% |
| CC(C)Cc1ccc(S(=O)(=O)Nc2cc3c(cc2N2CCOCC2)n(C)c(=O)c(=O)n3C)cc1 | inconclusive [inhibitor, single point] | – |
| CCOc1ccccc1CNS(=O)(=O)c1ccc2[nH]c(=O)ccc2c1 | inconclusive [inhibitor, single point] | – |
| CCOc1ccc(-c2ccc(NS(=O)(=O)c3cc([N+](=O)[O-])c(C)c([N+](=O)[O-])c3)cc2)nn1 | inconclusive [inhibitor, partial curve] | – |
| CCOC(=O)c1[nH]ncc1CN1CCCC(C(=O)c2cccc3ccccc23)C1 (stereo unspecified) | – | inactive: 0.872% |
| CC(C)N(C(=O)CSc1nnc(-c2cc3ccccc3cc2O)n1Cc1ccco1)C(C)C | active: 13 µM | – |

| Structure (SMILES) | Potency | activity change, negative = growth inhibition |
| --- | --- | --- |
| Cc1ccc(C)c(Cn2c(-c3cccs3)nc3ccccc32)c1 | inconclusive [inhibitor, single point] | – |
| CC(=O)Nc1cccc(OCc2ccc([N+](=O)[O-])cc2)c1 | inconclusive [inhibitor, single point] | – |
| O=C(Nc1ccc(S(=O)(=O)N2CCCC2)cc1)c1ccc(Cl)nc1 | inconclusive [inhibitor, partial curve] | – |
| CN(C)c1ccc(CNn2cnnc2SCC(=O)NC(C)(C)C)cc1 | – | inactive: 5.67% |
| Cc1cc(C)cc(NC(=O)C2CCCN(S(=O)(=O)c3c(C)noc3C)C2)c1 (stereo unspecified) | inconclusive [inhibitor, single point] | – |
| COc1ccc(-c2nnn(CC(=O)N(Cc3ccccc3Cl)C(C(=O)NCC3CCCO3)c3ccco3)n2)cc1OC (stereo unspecified) | inconclusive [inhibitor, single point] | – |
| COc1ccc(Cc2nnc(SCC(=O)c3ccc4c(c3)NC(=O)CO4)o2)cc1 | – | inactive: 0.37% |
| O=C(NCC1CCCCC1)C1CCCN(C(=O)NC2CCCCC2)C1 (stereo unspecified) | inconclusive [inhibitor, single point] | – |
| COc1cccc(C(C(=O)NC2CCCC2)N(C(=O)c2ccco2)c2ccc(NC(C)=O)cc2)c1OC (stereo unspecified) | – | inactive: -20% |
| N#Cc1c(N2CCOCC2)nsc1-c1ccccc1 | – | inactive: -1.74% |
| CCOC(=O)c1oc2nc(C(C)C)c3c(c2c1N)CCC3 | inconclusive [inhibitor, single point] | – |
| Cc1cccc(N2CCN(C(=O)c3cccc(S(=O)(=O)N4CCc5ccccc5C4)c3)CC2C)c1 (stereo unspecified) | active: 9.2 µM | – |
| CCN(CCCNC(=O)CN1N=C(c2ccc(OC)cc2)CCC1=O)c1cccc(C)c1 | inconclusive [inhibitor, single point] | – |
| CCC(C(=O)Nc1c(C)cc(C)cc1C)n1c(=O)c(-c2ccccc2NC(C)=O)nc2ccccc21 (stereo unspecified) | – | inactive: -23.5% |
| S=C(NCCc1ccccc1)NC1CC1 | – | inactive: -8.11% |
| CN(C)c1ccc(/C=N/NC(=S)NCc2ccco2)cc1 | inconclusive [inhibitor, single point] | – |
| CCOC(=O)C1CCCN(C(=O)c2cc3c(=O)[nH]c4ccc(C)cc4c3s2)C1 (stereo unspecified) | inconclusive [inhibitor, single point] | – |
| CCOc1ccc(CCNC(=O)CCCn2nc(C)c3sc4ccccc4c3c2=O)cc1 | inconclusive [inhibitor, partial curve] | – |
| CNS(=O)(=O)c1ccc(CCC(=O)N2CCN(c3ccccc3OC)CC2)cc1 | inconclusive [inhibitor, single point] | – |
| OC(CCc1ccncc1)c1ccccc1 (stereo unspecified) | – | inactive: 6.49% |
| O=C(Nc1cccc(S(=O)(=O)N2CCOCC2)c1)[C@@H]1CCCN1S(=O)(=O)c1ccc(Cl)cc1 | inconclusive [inhibitor, full curve, poor fit] | – |
| Cc1cccc(NC(=O)CCCCCn2c(=O)[nH]c3ccsc3c2=O)c1 | – | inactive: 2.49% |
| CCCOC(=O)c1ccc(OCC(O)CN2CCN(C(=O)c3ccccc3)CC2)cc1 (stereo unspecified) | inconclusive [inhibitor, single point] | – |
| O=C(Cc1ccccc1)N1CCC(C(=O)N2CCN(c3ccc(F)cc3)CC2)CC1 | inconclusive [inhibitor, single point] | – |

| Structure (SMILES) | Potency | activity change, negative = growth inhibition |
| --- | --- | --- |
| COC(CNC(=O)c1ccc2c3c(onc13)-c1ccccc1C2=O)OC | active: 2.91 µM | – |
| CSc1nsc(SC)c1C(=O)N1CCN(S(=O)(=O)c2ccc(C)cc2)C1C(C)C (stereo unspecified) | inconclusive [inhibitor, single point] | – |
| O=C(/C=C/c1ccc(F)cc1)Nc1ccc2[nH]c(=O)[nH]c2c1 | – | inactive: -3.85% |
| Cc1ccc(C2=Nc3ccccc3SC(c3cccc([N+](=O)[O-])c3)C2)cc1 (stereo unspecified) | inconclusive [inhibitor, single point] | – |
| COc1ccc(OC)c(/C=N/NC(=O)c2[nH]nc3c2CCc2ccccc2-3)c1 | – | inactive: -26.4% |
| COc1ccc(C(=O)NC(=S)NNC(=O)c2cnccn2)cc1OC | inconclusive [inhibitor, single point] | – |
| CCOC(=O)C1=C(C)NC(=O)NC1c1ccc([N+](=O)[O-])o1 (stereo unspecified) | inconclusive [inhibitor, partial curve, poor fit] | – |
| COc1ccc(-c2ccc(NS(=O)(=O)c3ccc(C(C)=O)cc3)cc2)nn1 | – | inactive: -28.2% |
| NCCCC[C@H]1CNC(=S)N1CCc1cc(C(F)(F)F)cc(C(F)(F)F)c1 | inconclusive [inhibitor, single point] | – |
| Cc1ccc(C(=O)Oc2cccnc2)cc1[N+](=O)[O-] | – | inactive: 1.98% |
| Cc1ccc(NS(=O)(=O)c2c(C)[nH]c(=O)[nH]c2=O)c(C)c1 | inactive | – |
| COc1cccc(N2CC(NC(=O)CCCc3ccccc3)CC2=O)c1 (stereo unspecified) | inconclusive [inhibitor, single point] | – |
| Cc1ccc(NC(=O)Cn2c(=O)oc3cc(S(=O)(=O)N4CCC(C)CC4)ccc32)cc1C | active: 14.6 µM | – |
| C[C@@H](NC(=O)[C@@H]1Cc2ccccc2CN1)C(=O)Nc1ccc2c(c1)OCCO2 | inconclusive [inhibitor, single point] | – |
| Cc1cccc(N2CCN(C(=O)c3cn(CC(C)C)c(=O)c4c3c3ccccc3n4C)CC2)c1C | active: 8.2 µM | – |
| O=C(Nc1nnc(COc2ccccc2)s1)Nc1ccccc1F | inconclusive [inhibitor, partial curve, poor fit] | – |
| NC(=O)SCC(=O)Nc1ccc(Cl)cc1 | active: 20.6 µM | – |
| Cc1cc(OCC(=O)OC(C)C(=O)NC2CC2)c(C(C)C)cc1Cl (stereo unspecified) | inconclusive [inhibitor, partial curve, poor fit] | – |
| CN(Cc1ccccc1)C(=O)c1nc2ccccn2c1CN1CCc2sccc2C1 | – | inactive: -22.3% |
| CCOC(=O)c1c(C)n(C)c2cc(Br)c(C)cc12 | – | inactive: -6.69% |
| O=S(=O)(NCCCCCNS(=O)(=O)c1ccccc1)c1ccccc1 | inconclusive [inhibitor, single point] | – |
| COc1ccc(NC(=O)N(O)C2(C#N)CCCCC2)cc1 | – | inactive: 4.22% |
| Cc1ccc(-c2noc(CNC(=O)c3ccc(Br)o3)n2)cc1 | inconclusive [inhibitor, single point] | – |
